# According to PubChem BioAssay AID588591 (National Center for Advancing Translational Sciences (NCATS), 2011):
# Several values for one entry are separate records, joined by “and”; a condition that tells them apart may be missing. Identical values can stand only once. Hit rate of the full screen: of about 390,000 compounds, about 4,700 (1.2%) were called active. Inconclusive results, whose numbers are uncertain, are shown with a selection of clear calls. Calls come from the whole dose curve; as a rule, active = well fitted inhibition curve with a large enough effect; inconclusive = small, poorly fitted or top-dose-only effect, or another doubt; inactive = no such curve, though single readings can be large or run the other way. Potencies beside an inconclusive call are fits to weak or partial responses and may not hold up.
# Biological target: DNA polymerase eta (Homo sapiens) (UniProt Q9Y253)
# Test: qHTS for Inhibitors of Polymerase Eta
# Details: recombinant Pol eta, fluorescent DNA replication assay; series mostly up to 114 µM
# Outline: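 Fluorescent replication assay: 50 nM final substrate added after a 15 min room-temperature compound preincubation with 10 nM enzyme. Signal taken at 0 min and again at 10 min.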
# Potency is the fitted concentration of half-maximal effect; tags give direction and shape of the fitted curve.
# UniProt Q9Y253, sequence (Q9Y253 whole entry, looked up): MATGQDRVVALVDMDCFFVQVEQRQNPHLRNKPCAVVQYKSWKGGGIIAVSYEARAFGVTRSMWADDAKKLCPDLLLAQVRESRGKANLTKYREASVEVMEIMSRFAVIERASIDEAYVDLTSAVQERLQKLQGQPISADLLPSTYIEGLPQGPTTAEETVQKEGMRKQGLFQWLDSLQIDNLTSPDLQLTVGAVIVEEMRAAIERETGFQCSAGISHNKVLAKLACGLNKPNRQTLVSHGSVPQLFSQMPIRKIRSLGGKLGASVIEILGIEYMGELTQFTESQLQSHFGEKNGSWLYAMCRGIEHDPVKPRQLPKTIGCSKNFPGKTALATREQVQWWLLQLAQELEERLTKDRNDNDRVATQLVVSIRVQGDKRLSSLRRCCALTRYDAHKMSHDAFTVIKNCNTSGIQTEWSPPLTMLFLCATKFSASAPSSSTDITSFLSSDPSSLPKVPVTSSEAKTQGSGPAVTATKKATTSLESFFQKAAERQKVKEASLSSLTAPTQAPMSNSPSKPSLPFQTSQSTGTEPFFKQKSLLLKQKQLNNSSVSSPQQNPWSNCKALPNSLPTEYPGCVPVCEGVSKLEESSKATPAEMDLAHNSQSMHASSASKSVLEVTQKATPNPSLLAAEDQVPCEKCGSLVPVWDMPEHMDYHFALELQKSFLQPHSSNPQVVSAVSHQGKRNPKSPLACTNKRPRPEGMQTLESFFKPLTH
row,Structure (SMILES),Potency
1,CC(C)C[C@H](NC(=O)c1[nH]cnc1C(=O)Nc1ccccc1F)C(=O)OC(C)(C)C,"inconclusive: 35.5 µM [inhibitor, partial curve, poor fit]"
2,CCOc1ccc(-n2c(C)cc(/C=N/NC(=O)C(N)=O)c2C)cc1,inactive
3,CCOc1cc(/C=N/NC(N)=O)ccc1OCC(=O)Nc1ccc(C)c(C)c1,"inconclusive: 79.4 µM [inhibitor, partial curve]"
4,Cc1c(C(=O)O)sc2nc(-c3cccs3)cc(C(F)(F)F)c12,"inconclusive: 79.4 µM [inhibitor, partial curve]"
5,CN1C(=O)/C(=C/c2ccc(C(=O)Nc3ccc(O)cc3C(=O)O)cc2)SC1=S,active: 22.4 µM
6,CCc1nnc(NS(=O)(=O)c2ccc(N=Cc3c(C)[nH]n(-c4cccc(Cl)c4)c3=O)cc2)s1,"inconclusive: 25.1 µM [inhibitor, full curve, poor fit]"
7,Cc1cc(N/N=C/c2ccc(O)cc2O)nc(-n2nc(C)cc2C)n1,"inconclusive: 39.8 µM [inhibitor, single point]"
8,Cc1ccc(Nc2cc(=O)[nH]c(=O)[nH]2)cc1C,inactive
9,CC(=C\c1ccccc1)/C=C1/SC(=S)N(CCCC(=O)O)C1=O,active: 25.1 µM
10,CCN1C(=O)C(CC(=O)Nc2ccc(OC)cc2)N(CCc2ccccc2)C1=S (centres undefined),"inconclusive: 50.1 µM [inhibitor, partial curve, poor fit]"
11,N#CC1(C#N)C(c2ccccc2)OC23CCCCC2C1(C#N)C(=N)O3 (centres undefined),"inconclusive: 39.8 µM [inhibitor, partial curve, poor fit]"
12,CC(C)(C)c1ccc(OCC(=O)Nc2ccc(C(=O)Nc3ccccc3C(=O)O)cc2)cc1,active: 79.4 µM
13,COc1cc(/C=C2/C(=O)NN(c3ccc(F)cc3)C2=O)cc([N+](=O)[O-])c1O,active: 44.7 µM
14,CS/C(=N\S(=O)(=O)c1cccs1)NC(=O)CSc1nc2ccccc2s1,active: 22.4 µM and active: 50.1 µM
15,CC(=O)c1ccc(S(=O)(=O)NC2CCCCCCC2)cc1,"inconclusive: 17.8 µM [inhibitor, full curve]"
16,CCc1ccc(NC(=O)c2nnn(Cc3cccc(C(F)(F)F)c3)c2N)cc1,inactive
17,COC(=O)c1cccc(NC(=O)CSc2nc(=O)cc(N)n2-c2ccccc2)c1,"inconclusive: 20 µM [inhibitor, full curve, poor fit]"
18,COc1ccc(NC(=O)CN2C(=O)c3ccccc3Sc3ccc(C(=O)N4CCOCC4)cc32)c(OC)c1,"inconclusive: 89.1 µM [inhibitor, single point]"
19,OCC#Cc1ncc(C(F)(F)F)cc1Cl,"inconclusive: 20 µM [inhibitor, partial curve, poor fit]"
20,Cc1ccc2c(c1C)NC(C(=O)O)C1CC=CC21 (centres undefined),active: 3.55 µM
21,COc1cc(C(=O)OCc2cc3ccccc3[nH]c2=O)cc(OC)c1OC,"inconclusive: 35.5 µM [inhibitor, partial curve, poor fit]"
22,C/C(N)=C(/C#N)C(=O)COC(=O)c1ccncc1,"inconclusive: 25.1 µM [inhibitor, partial curve]"

row,Structure (SMILES),Potency
1,CCc1ccc(NC(=O)C2=CC(c3ccc4c(c3)OCO4)=NS(=O)(=O)N2C)cc1,"inconclusive: 56.2 µM [inhibitor, partial curve, poor fit]"
2,Cc1ccc(NC(=S)N/N=C/c2ccc([N+](=O)[O-])s2)cc1,inactive
3,Cc1ccc(-n2nc(C(=O)Nc3ccc(C)c(F)c3)c(=O)n(C)c2=O)cc1,inactive
4,COc1ccc2cc3c(N)nn(C(=O)c4ccc(Cl)c([N+](=O)[O-])c4)c3nc2c1,"inconclusive: 2.82 µM [inhibitor, full curve, poor fit]"
5,CC(C)(C)C1CCC(OC(=O)CCC(=O)Nc2ccccc2)CC1 (centres undefined),"inconclusive: 50.1 µM [inhibitor, full curve, poor fit]"
6,Cc1ccc(C)c(N2N=C(C(=O)NCCN3C(=O)S/C(=C\c4cccnc4)C3=O)CCC2=O)c1,"inconclusive: 50.1 µM [inhibitor, partial curve]"
7,Cc1cc(C)n(-c2ccc(C(=O)Nc3sccc3C(N)=O)cc2)n1,"inconclusive: 22.4 µM [inhibitor, single point]"
8,O=C(COC(=O)c1cc(NS(=O)(=O)c2cccs2)ccc1O)Nc1cc(Cl)ccc1Cl,inactive
9,O=S(=O)(c1ccc2[nH]c3c(c2c1)CCCCC3)N1CCN(c2cccc(Cl)c2)CC1,inactive
10,COc1ccc(-n2c(CCc3ccccc3)nnc2SCC(=O)c2ccc(Cl)cc2)cc1,"inconclusive: 39.8 µM [inhibitor, partial curve, poor fit]"
11,CC1=C(C(=O)OCC(C)C)C(c2ccsc2)C2=C(CCCC2=O)N1 (centres undefined),"inconclusive: 56.2 µM [inhibitor, partial curve, poor fit]"
12,COc1cc(/C=C2\SC(=S)N(CC(=O)O)C2=O)ccc1OS(=O)(=O)c1ccc(C)cc1,"inconclusive: 56.2 µM [inhibitor, partial curve, poor fit]"
13,Cc1cc(C(=O)COC(=O)CNC(=O)c2ccco2)c(C)n1Cc1ccco1,"inconclusive: 22.4 µM [inhibitor, partial curve, poor fit]"
14,CC(Oc1ccccc1)C(=O)OCC(=O)NC(=O)NCc1ccco1 (centres undefined),"inconclusive: 14.1 µM [inhibitor, full curve, poor fit]"
15,N#Cc1c(NC(=O)c2ccc(Br)o2)n(-c2ccccc2)c2nc3ccccc3nc12,active: 35.5 µM
16,COc1cc([N+](=O)[O-])ccc1NC(=O)COC(=O)c1c[nH]c(=O)[nH]c1=O,"inconclusive: 3.55 µM [inhibitor, partial curve]"
17,CCC(/C=C1\Sc2ccc(OC)cc2N1CCO)=C\c1sc2ccc(OC)cc2[n+]1CCO,active: 14.1 µM
18,COc1ccc(Cc2nnc(NC(=O)C3CC(=O)N(c4ccc(OC)cc4)C3)s2)cc1 (centres undefined),"inconclusive: 63.1 µM [inhibitor, partial curve, poor fit]"
19,O=C(COC(=O)c1ccc([N+](=O)[O-])o1)NCCc1ccccc1,active: 79.4 µM
20,COc1ccc(CNCCSc2nnnn2-c2ccccc2)c(OC)c1,"inconclusive: 89.1 µM [inhibitor, partial curve, poor fit]"
21,CCc1ccccc1NC(=O)Cn1nnc(C(=O)NCc2cccs2)c1N,"inconclusive: 35.5 µM [inhibitor, partial curve, poor fit]"
22,O=C(O)Cn1cc(/C=c2/sc3nc4ccccc4n3c2=O)c2ccccc21,active: 79.4 µM

row,Structure (SMILES),Potency
1,COc1ccc(-c2cc(=O)oc3cc(OCC(=O)Nc4ccccn4)ccc23)cc1,"inconclusive: 20 µM [inhibitor, partial curve, poor fit]"
2,S=c1[nH]nc(C2CC2c2ccc(Cl)cc2)n1-c1ccc(Cl)cc1 (centres undefined),"inconclusive: 79.4 µM [inhibitor, partial curve, poor fit]"
3,CCOC(=O)C1=C(C)N=c2s/c(=C\c3ccc(OCC(=O)O)cc3)c(=O)n2C1c1ccccc1 (centres undefined),"inconclusive: 79.4 µM [inhibitor, partial curve]"
4,CCc1ccc(Sc2cc(C(=O)NCCCOC(C)C)c3ccccc3n2)cc1,"inconclusive: 89.1 µM [inhibitor, partial curve, poor fit]"
5,COC(=O)c1ccccc1NC(=O)CSc1nc(O)c(-c2ccccc2)c(=O)[nH]1,"inconclusive: 79.4 µM [inhibitor, partial curve]"
6,COc1cccc(C2C(C(=O)Nc3ccccc3)=C(C)Nc3nnnn32)c1OC (centres undefined),inactive
7,Cc1ccc2nc(NS(=O)(=O)c3ccc(Cl)cc3)c(Nc3ccc(C(=O)O)cc3)nc2c1,"inconclusive: 89.1 µM [inhibitor, single point]"
8,Cc1nc2c(C(=O)NCCc3ccc(Cl)cc3)c[nH]n2c(=O)c1Cc1ccccc1F,"inconclusive: 89.1 µM [inhibitor, single point]"
9,COc1cccc(NC(=O)CN2C(=O)NC3(CCCC3)C2=O)c1,inactive
10,CCc1nc2c(sc3nc4c(cc32)COC(C)(C)C4)c(=O)n1Cc1ccco1,"inconclusive: 17.8 µM [inhibitor, full curve, poor fit]"
11,Cc1cc2nc(-c3ccc(Br)cc3)cc(C(F)(F)F)n2n1,inactive
12,O=C(Cc1cccs1)Nc1ccccn1,"inconclusive: 28.2 µM [inhibitor, partial curve, poor fit]"
13,O=C(Cn1ncc2c3ccccc3n(Cc3cccc(Cl)c3)c2c1=O)NC1CCCCCC1,"inconclusive: 100 µM [inhibitor, partial curve, poor fit]"
14,COc1cc2nc(NC(=O)c3ccc(Cl)cc3)sc(=O)c2cc1OC,"inconclusive: 79.4 µM [inhibitor, partial curve, poor fit]"
15,C=CCN1c2ccccc2[C@]23C[C@@H](C(=O)OC)N(C(=O)c4ccc(Br)cc4)C2=NC(C(=O)OC)=C(C(=O)OC)[C@H]13,inactive
16,O=C(NCC(=O)N1CCCC1)c1ccccc1F,"inconclusive: 100 µM [inhibitor, partial curve, poor fit]"
17,Cc1ccc(Sc2ccc(/C=C3/C(=O)NN(c4ccccc4)C3=O)o2)cc1,active: 22.4 µM
18,O=C1CCCC2=C1C(c1ccc(O)c(O)c1)c1c(ccc3ncccc13)N2 (centres undefined),active: 25.1 µM
19,O=C(Cn1cc(C(F)(F)F)cc(Cl)c1=O)NC1CCS(=O)(=O)C1 (centres undefined),inactive
20,Cc1cc(=O)oc2cc(NC(=O)C(C)Oc3ccc(F)cc3)ccc12 (centres undefined),"inconclusive: 39.8 µM [inhibitor, partial curve, poor fit]"
